Assay results from PubChem BioAssay AID686978 (National Center for Advancing Translational Sciences (NCATS), 2013).
Values joined by “and” are separate entries in the source; they are usually repeats but may differ in a detail not shown here. Equal entries are not always repeated. Hit rate of the full screen: of about 420,000 compounds, about 64,000 (15%) were called active. The shares of active, inactive and inconclusive entries below differ from those in the screen. The call rests on the fitted dose curve; in most records, active means well fitted inhibition curve with a large enough effect; inconclusive means small, poorly fitted or top-dose-only effect; inactive means flat fitted curve, though single readings scatter. Where the call is inconclusive, the potency comes from a doubtful curve fit.

Assay: qHTS for Inhibitors of human tyrosyl-DNA phosphodiesterase 1 (TDP1): qHTS in cells in absence of CPT; further: nearly all actives have a fitted effect of over 55% in size
Settings: DT40 Tdp1-/- hTDP1 cells, no CPT, ATP luminescence, 48 h; activity change, negative = growth inhibition: at 46.2 µM (top of the series) unless noted
In short: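 Chicken DT40 Tdp1-/- cells complemented with human TDP1, screened without camptothecin (DMSO vehicle only), 400 cells/well. Compounds pin-transferred, cells incubated at 37 °C for at least 48 hr. Growth read as ATP-dependent luminescence (CellTiter-Glo, 30 min at RT).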
On the % scale 0 is the no-effect control and ±100 the full control effect; potency means the concentration at half of the fitted maximal effect; tags describe the fitted curve by direction and shape.

Row | Structure (SMILES) | Potency | activity change, negative = growth inhibition
1 | CC1c2cc3c(cc2CCN1C(=O)c1ccc(C(F)(F)F)cc1)OCCCO3 (stereo not given) | inconclusive: 16.4 µM [inhibitor, partial curve] | 
2 | CCCOc1ccc(F)cc1-c1cc(C(=O)Nc2ccc(F)c(Cl)c2)[nH]n1 | active: 16.4 µM | 
3 | Cc1cccc(N2CCN(C(=O)Cn3c(=O)[nH]c4ccsc4c3=O)CC2C)c1 (stereo not given) | inconclusive: 20.6 µM [inhibitor, partial curve, poor fit] | 
4 | CCCCNC(=S)NNC(=O)c1cc(-c2cccnc2)nc2ccccc12 | inactive | 
5 | CCOc1nc(SC(C(C)=O)C(=O)Nc2ccccc2)nc(N(C)C)n1 (stereo not given) | inconclusive: 29.1 µM [inhibitor, single point] | 
6 | COc1ccc(-c2cc(C)no2)cc1S(=O)(=O)NCc1cccc(C)c1 | inconclusive: 29.1 µM [inhibitor, single point] | 
7 | CCCCOc1ccc(N2C(=O)C(C)CNC2=S)cc1 (stereo not given) | inactive | 
8 | Nc1[nH]nc2nc3ccccc3nc12 | inconclusive: 23.7 µM [inhibitor, partial curve, poor fit] | 
9 | CCCC(=O)OC/C(O)=C(\C#N)c1nc2ccccc2[nH]1 | inconclusive: 29.1 µM [inhibitor, single point] | 
10 | Cc1ccc(-n2ncc(C(=O)Nc3ccc4c(c3)OCCO4)c2C2CCN(C(=O)OC(C)(C)C)CC2)cc1C | inconclusive: 23.1 µM [inhibitor, single point] | 
11 | O=C(NCCCN=C1NS(=O)(=O)c2ccccc21)c1ccncc1 | inconclusive: 4.11 µM [inhibitor, single point] | 
12 | O=C1CC(c2ccc(OCCCCCOc3ccc(C4CC(=O)NC4=O)cc3)cc2)C(=O)N1 (stereo not given) | inconclusive: 16.4 µM [inhibitor, single point] | 
13 | COc1cccc(C(=O)N(c2ccccc2)C2C=CS(=O)(=O)C2)c1 (stereo not given) | inactive | 
14 | Cc1cccc(NC(=O)CCc2ccc(N3C(N)=NC(N)=NC3(C)C)cc2)c1 | active: 0.366 µM | 
15 | CC1CCN(C(=O)c2cccc(S(=O)(=O)N3CCCCC3)c2)CC1 | inconclusive: 5.17 µM [inhibitor, partial curve] | 
16 | COC(=O)C1CCN(C(=O)/C=C/c2ccc3c(c2)OCO3)CC1 | active: 16.4 µM | 
17 | Fc1ccc2nc(C3CCCCN3Cc3nc(CC4CC4)no3)[nH]c2c1 (stereo not given) | inconclusive: 4.11 µM [inhibitor, partial curve] | 
18 | Cc1ccc(CNC(=O)Cc2ccc(-c3ccccc3)cc2)cc1 | active: 0.58 µM | 
19 | O=C(COC(=O)Cc1ccccc1F)Nc1cc(S(=O)(=O)N2CCOCC2)ccc1N1CCCC1 | inactive | 
20 | COc1ccc(NC(=O)c2ccccc2SC)c(OC)c1 | inconclusive: 16.4 µM [inhibitor, single point] | 
21 | Cc1nnsc1C(=O)N1CCCC(C)(C(=O)NS(=O)(=O)C2CC2)C1 (stereo not given) | inconclusive: 23.1 µM [inhibitor, single point] | 
22 | N#Cc1c(C(F)(F)F)cc(-c2ccc(F)cc2)nc1SCC(=O)O | inconclusive: 18.4 µM [inhibitor, single point] | 
23 | Nc1ccc(-c2ccc(N)c([N+](=O)[O-])c2)cc1[N+](=O)[O-] | inconclusive: 16.4 µM [inhibitor, partial curve] | 
24 | O=C(c1ccccc1)c1nn(-c2cccc(Cl)c2)c2nc(-c3ccccc3)cc(=O)n12 | inconclusive: 16.4 µM [inhibitor, single point] | 

Row | Structure (SMILES) | Potency | activity change, negative = growth inhibition
25 | COc1ccccc1N1CCN(C(=O)Cn2ncc3c2-c2cc(C)ccc2OC3)CC1 | active: 20.6 µM | 
26 | CCN1C(=O)[C@H]2[C@@H](c3ccc(C)cc3)N3C(=O)N(c4cccc(Br)c4)C(=O)[C@@]3(Cc3ccccc3)[C@H]2C1=O | inconclusive: 18.4 µM [inhibitor, single point] | 
27 | CC(=O)N/C(=C/c1ccccc1)C(=O)N1CCCCC1 | inactive | 
28 | CC(C)CCOc1cccc(OCC(=O)Nc2ccncc2)c1 | active: 13 µM | 
29 | O=C(Nc1cccc(-n2cccn2)c1)C1CCCN(Cc2cc3ccccc3[nH]2)C1 (stereo not given) | inconclusive: 29.1 µM [inhibitor, single point] | 
30 | CC(C)(C)NC(=O)C(c1cc2ccccc2o1)n1c(=O)c(-c2cc3ccccc3[nH]2)nc2ccccc21 (stereo not given) | inconclusive: 23.1 µM [inhibitor, single point] | 
31 | O=C(Nc1ccc(NC(=O)c2ccccc2F)cc1)c1cccs1 | inconclusive: 29.1 µM [inhibitor, single point] | 
32 | C[C@@H]1CN(C2CCN(Cc3nc(C(c4ccccc4)c4ccccc4)no3)CC2)C[C@H](C)O1 | inconclusive: 13 µM [inhibitor, partial curve] | 
33 | O=C(COC(=O)/C=C/C(=O)N1CCN(c2ccccc2)CC1)NCc1ccc(F)cc1 | inactive | 
34 | CCCc1cc(=O)[nH]c(SCC(=O)N2c3ccccc3NC(=O)C2(C)C)n1 | inactive | 
35 | Cc1ccc(C(=O)Nc2ncccc2O)cc1S(=O)(=O)N1CCCCC1 | inactive | 
36 | CCc1nc2ccc(C(=O)N3CCCC(C(N)=O)C3)cn2c1N(CCC(C)C)CCN(C)C (stereo not given) | inactive | 
37 | COc1ccccc1NC(=O)CC1Sc2ccc(C(F)(F)F)cc2NC1=O (stereo not given) | inactive | 
38 | CN(C)c1ccc(CN(C(=O)/C=C/c2ccccc2Cl)C2CCS(=O)(=O)C2)cc1 (stereo not given) | active: 20.6 µM | 
39 | COC(=O)c1cc(NC(=O)Cc2coc3cc(OC)ccc23)cc(C(=O)OC)c1 | inconclusive: 23.1 µM [inhibitor, single point] | 
40 | COc1ccc2c(Cl)cc(NC(=O)Nc3c(C)cccc3C)nc2c1 | active: 18.4 µM | 
41 | CC(C)C[C@H]1CN=C(Nc2ccccc2)N1CC1CCCCC1 | active: 16.4 µM | 
42 | COCCCNC(=S)NNC(=O)c1cc(-c2cccnc2)nc2ccccc12 |  | inconclusive: -27.5% [inhibitor]
43 | CCCCn1nc(C(=O)N(C)CC(=O)Nc2cccc(F)c2)c2ccccc2c1=O | inconclusive: 16.4 µM [inhibitor, single point] | 
44 | C=CCC(CC=C)(NC(=O)c1cccc(C)c1)c1ccccc1 | inactive | 
45 | CC1(NC(=O)Cc2ccc(Cl)c(Cl)c2)CCS(=O)(=O)C1 (stereo not given) | inactive | 
46 | Cc1cc(N2CCN(C)CC2)nc2ccc(NC(=S)NCCC(C)C)cc12 | active: 14.6 µM | 
47 | COc1ccc(-c2onc(C)c2C)cc1S(=O)(=O)NCc1cccs1 | active: 18.4 µM | 
48 | CCN(CC)S(=O)(=O)c1cccc(C(=O)c2c(C)cc3ccccn23)c1 | active: 20.6 µM | 

Row | Structure (SMILES) | Potency | activity change, negative = growth inhibition
49 | CC(=O)c1ccc(C(=O)N2CCCC(c3nc(SCc4ccccn4)ncc3C)C2)cc1 (stereo not given) | inconclusive: 16.4 µM [inhibitor, partial curve] | 
50 | COc1ccc2c(c1)c1ncn(Cc3ccco3)c(=O)c1n2C | active: 13 µM | 
51 | Cc1cc(C2=NNC(=Nc3ccc(S(=O)(=O)N4CCOCC4)cc3)SC2)c(C)n1CC1CCCO1 (stereo not given) | active: 2.91 µM | 
52 | CC(=O)N[C@@H]1C(O[C@H]2O[C@H](C(=O)O)C(O)[C@H](O)[C@H]2O)[C@H](O)[C@@H](CO)O[C@H]1O[C@@H]1C(C(=O)O)O[C@@H](O[C@H]2[C@H](O)[C@@H](CO)OC(O)[C@@H]2NC(C)=O)[C@H](O)[C@H]1O (stereo not given in full) | active: 21.1 µM | 
53 | CC1=C(C(=O)OCc2ccc(C)cc2)C(c2ccccc2C(F)(F)F)CC(=O)N1 (stereo not given) | active: 20.6 µM | 
54 | CCn1ncc(Br)c1C(=O)Nc1cc(C)cc(C)c1 | inconclusive: 18.4 µM [inhibitor, single point] | 
55 | CCOc1cccc(C(=O)NC(c2ccccc2)C(C)C)c1 (stereo not given) | inactive | 
56 | Cc1cnc(C(=O)NCC(=O)Nc2ccccc2Br)cn1 | inactive | 
57 | CSc1sc(C(=O)Nc2ccc(F)cc2F)c2c1C=CCC2 | inconclusive: 16.4 µM [inhibitor, partial curve, poor fit] | 
58 | COc1ccc(Nc2ncnc3c2cnn3Cc2ccccc2)cc1 | inconclusive: 29.1 µM [inhibitor, single point] | 
59 | CCOC(=O)c1cnc(SCC(=O)Nc2ccc3c(c2)OCCO3)nc1N | inconclusive: 29.1 µM [inhibitor, single point] | 
60 | CN(C)CCNC(=O)c1ccc(-c2cn3c(-c4ccc(Oc5ccccc5)cc4)cnc3cn2)cc1 | inconclusive: 29.1 µM [inhibitor, single point] | 
61 | COc1ccc(-c2cc(C(=O)NCCc3ccc(S(N)(=O)=O)cc3)c3ccccc3n2)cc1 | inconclusive: 14.6 µM [inhibitor, partial curve] | 
62 | CC(=O)C1=CCC(c2ccccc2Cl)N(S(=O)(=O)c2ccc(C)cc2)C1 (stereo not given) | inconclusive: 20.6 µM [inhibitor, single point] | 
63 | O=C1c2ccccc2C(=O)C1C(=O)C1CC1 | inconclusive: 20.6 µM [inhibitor, single point] | 
64 | COc1ccc(OC)c(NC(=O)NNC(=O)COc2ccc(-c3ccccc3)cc2)c1 | inactive | 
65 | COC(=O)c1c(NC(=O)c2ccc(Cl)c(Cl)c2)sc2c1CCCC2 | inactive | 
66 | O=C(O)CC(c1ccc(Cl)cc1)n1cccc1 (stereo not given) | inconclusive: 29.1 µM [inhibitor, single point] | 
67 | C#C[C@]1(O)CC[C@H]2[C@@H]3CCC4=CC(=O)CC[C@@H]4[C@H]3CC[C@@]21C | inactive and inconclusive: 18.4 µM [inhibitor, single point] | 
68 | CCCC1CCC(C(=O)Nn2c(C)nc3ccccc3c2=O)CC1 (stereo not given) | inconclusive: 20.6 µM [inhibitor, partial curve, poor fit] | 
69 | Cc1cccc(C)c1OCc1cc(C(=O)N(C)CCc2ccccn2)no1 | inconclusive: 25.9 µM [inhibitor, single point] | 
70 | Cc1ccc(CCNC(=O)c2nnn(-c3cc(C)cc(C)c3)c2N)cc1 | inconclusive: 20.6 µM [inhibitor, single point] | 
